Data: PubChem BioAssay AID686978 (National Center for Advancing Translational Sciences (NCATS), 2013)
The whole screen tested about 420,000 compounds, of which about 64,000 (15%) were called active. Inconclusive results, whose numbers are uncertain, are shown with a selection of clear calls. Calls follow the shape of the dose curve; as a rule, active = well fitted inhibition curve with a large enough effect; inconclusive = small, poorly fitted or top-dose-only effect; inactive = flat fitted curve, though single readings scatter. No potency is given beside an inconclusive call; the fits are too rough.

Test: qHTS for Inhibitors of human tyrosyl-DNA phosphodiesterase 1 (TDP1): qHTS in cells in absence of CPT; also: nearly all actives have a fitted effect of over 55% in size
Conditions: DT40 Tdp1-/- hTDP1 cells, no CPT, ATP luminescence, 48 h; activity change, negative = growth inhibition: at 46.2 µM (top of the series) unless noted
Procedure, shortened: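 DT40 Tdp1-/-;hTDP1 cells, no CPT (DMSO vehicle only), 400 cells/well; compounds pin-transferred; ≥48 hr, 37 °C; CellTiter-Glo 30 min RT dark, luminescence read.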
% is scaled to controls: 0 for no effect and ±100 for the full control effect; potency is read from the fitted curve at half-maximal effect; tags tell the direction and shape of the fitted curve.

SMILES	Potency	activity change, negative = growth inhibition
Cc1ccc(NC(=O)COc2ccc3c(c2)OCO3)c(Cl)c1	inactive	
COc1ccc(C(=O)N2CCCC(c3nc(-c4cccs4)no3)C2)cc1 (centres undefined)	inconclusive [inhibitor, single point]	
Cc1ccc(/C=C/C(=O)NCCCN2CCN(CCCNC(=O)/C=C/c3ccc(C)cc3)CC2)cc1		inconclusive: -32.9% [inhibitor]
NCCO	inactive	
CC(C)c1ccc(CNc2cc(N3CCCC3)ccc2[N+](=O)[O-])cc1	inconclusive [inhibitor, single point]	
Cc1ccc(C)c(CN2C(=O)CSc3ccc(C(=O)NCCN4CCOCC4)cc32)c1	inconclusive [inhibitor, partial curve]	
COC(=O)c1ccc(OCC(=O)c2ccccc2)cc1	inconclusive [inhibitor, partial curve, poor fit]	
CN(C)C(=O)c1ccc(SC(=S)NCc2ccccc2)cc1	active: 5.8 µM	
CC1Cc2ccccc2N1S(=O)(=O)c1cccc2nsnc12 (centres undefined)	inconclusive [inhibitor, partial curve, poor fit]	
O=C(c1ccco1)N1CCC2(CCCN(Cc3ccccc3)C2)CC1	inconclusive [inhibitor, single point]	
CCc1ccc(OCC(=O)NCC(c2ccc(Cl)cc2)N2CCCCC2)cc1 (centres undefined)	inconclusive [inhibitor, single point]	
Cc1cc(N2CCCCCC2)nc(-c2ccccc2O)n1	inconclusive [inhibitor, partial curve, poor fit]	
CCCCN1CC(=O)N2[C@H]3c4cc(Cl)ccc4OC[C@@H]3[C@H](C(=O)OCC)[C@]2(C)C1=O	inactive	
Cc1noc(NS(=O)(=O)c2ccc(NC(=O)c3ccccc3NS(=O)(=O)c3ccc(F)cc3)cc2)c1C	inactive	
COC(=O)Cc1ccc(OC2(C)CCN(Cc3ccc4c(c3)OCCO4)C2)cc1 (centres undefined)	inconclusive [inhibitor, single point]	
CC1CCC2(CC1)NC(=O)N(NC(=O)C1CCN(C(=O)c3ccc(Cl)cc3)CC1)C2=O (centres undefined)	inconclusive [inhibitor, partial curve]	
O=C(Nc1ccc(F)cc1F)C1CCN(c2ncnc3c2sc2cccc(F)c23)CC1	active: 16.4 µM	
Cc1ccc2[nH]c(C(=O)N3CCN(c4cccc(Cl)c4)CC3)cc2c1	inactive	
CCCC(C(=O)NC1CCCC1)N(C(=O)Cn1nnc(-c2ccc(C)o2)n1)C1CCCC1 (centres undefined)	inconclusive [inhibitor, single point]	
C=CCNC(=S)N1CCN(S(=O)(=O)c2ccc(C)cc2)CC1	inactive	
COc1ccc(NC(=S)Nc2ccccc2)c(OC)c1	inactive	
CC(C)OCCCNC(=O)CCSc1ccc(Cl)cc1	inactive	
CC(=O)NC1=C(NC2CCS(=O)(=O)C2)C(=O)c2ccccc2C1=O (centres undefined)	active: 11.6 µM	
O=C(CNC(=O)c1ccccc1)c1ccccc1	inactive	
COc1ccccc1Cc1nc2ccccc2nc1SCC(=O)NCc1ccc(F)cc1	inactive	

SMILES	Potency	activity change, negative = growth inhibition
Cc1cc(C)c(S(=O)(=O)n2c([N+](=O)[O-])cnc2C)cc1C	inactive	
Cc1ccc[n+](CC(=O)c2ccc(NC(=O)c3ccccc3)cc2)c1C	inconclusive [inhibitor, single point]	
O=C(CC(c1cccs1)N1Cc2ccccc2C1=O)Nc1ccc(Cl)cc1 (centres undefined)	inconclusive [inhibitor, partial curve]	
CCOc1ccc2nc(Cl)c(C3CC(c4ccc(C)cc4)=NN3C(=O)CCCC(=O)O)cc2c1 (centres undefined)	inactive	
COc1cc(C=O)ccc1OCCOCCOc1ccc(Cl)cc1Cl	active: 14.6 µM	
Cc1cccc(N2CCN(c3ncnc4onc(-c5ccc(F)cc5)c34)CC2C)c1 (centres undefined)	active: 14.6 µM	
N=C(N)n1cccn1	inactive	
Cc1csc(NC(=O)CSc2ccc(-c3ccc(F)cc3)nn2)n1	inconclusive [inhibitor, partial curve]	
CCc1nc(NCCCN2CCOCC2)c2oc3ccccc3c2n1	inconclusive [inhibitor, single point]	
CN(C)CCN(C)Cc1ccccc1Sc1cccc2ccccc12	active: 8.2 µM	
COc1ccc(N2CCN(c3nc4c(c(=O)n(C)c(=O)n4C)n3CCCc3ccccc3)CC2)cc1	inactive	
O=C(COC(=O)C1=Cc2ccccc2OC1)NC1CCCC1	inactive	
COc1ccc(/C=C/C(=O)c2c(C)cc(C)[nH]c2=O)c2ccccc12	inconclusive [inhibitor, single point]	
CCc1ccc(NC(=O)C2CCCN(S(=O)(=O)c3cccnc3)C2)cc1 (centres undefined)	inconclusive [inhibitor, partial curve]	
CCCCN(CC(=O)NCc1ccc(Cl)cc1)S(=O)(=O)c1ccc2c(c1)OCCO2	active: 23.1 µM	
O=C(Cn1cc([N+](=O)[O-])cn1)Nc1ccccn1	inactive	
OCC1OC(n2cnc3ncccc32)C(O)C1O (centres undefined)	active: 6.51 µM	
Cc1ccc(NC(=O)CCc2nc3cccnc3n2-c2ccccc2)cc1	inconclusive [inhibitor, single point]	
CC1Nc2ncnc(N3CCN(c4ccccn4)CC3)c2N(Cc2ccccc2)C1=O (centres undefined)	inconclusive [inhibitor, partial curve, poor fit]	
CC(=O)NC(CC(=O)N(Cc1ccccc1)c1ccc(C)cc1)c1ccccc1 (centres undefined)	inconclusive [inhibitor, single point]	
Cc1cc(C)c2oc(-c3ccc(NC(=O)c4cc(Br)ccc4Cl)cc3)nc2c1	inconclusive [inhibitor, single point]	
O=C(Nc1ccc(S(=O)(=O)C(F)F)cc1)c1cccc(S(=O)(=O)N2CCOCC2)c1	active: 14.6 µM	
Cc1ccc([N+](=O)[O-])cc1NC(=O)Nc1onc(C)c1C	inconclusive [inhibitor, partial curve]	
CCCCN(C)S(=O)(=O)c1ccc(C(=O)Nc2nnc(C3=COCCO3)o2)cc1	inconclusive [inhibitor, single point]	
